Measurements from the supplement of paper PMC11181314.
This is one part of the list. Single values of this set are uncertain.

System: U2OS
Experiment: Cell Painting induction (percent of morphological features significantly changed vs DMSO); higher = stronger morphological change
Conditions: 10 µM, 20 h
Procedure: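 Cell Painting assay in U2OS cells: compounds at 10 µM for 20 h, six dyes, 579 robust CellProfiler features as Z-scores vs DMSO median (MAD). Induction is the % of significantly changed features (active if ≥5%); relative cell count is in % of DMSO. The primary run holds DCM compounds preselected for induction ≥10%; the confirmation repeat defines active compounds (370 of 549). Replicate agreement is low, attributed to precipitation.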

[1] = run: primary screen (compounds selected for induction >=10%)
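Note: stains mark DNA, RNA and nucleoli, ER, actin, Golgi, plasma membrane and mitochondria, read by high-content imaging, with DMSO controls at matching solvent concentration.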

SMILES | Cell Painting induction (run: confirmation repeat) | Cell Painting induction [1]
COc1cccc(NC(=O)c2cnn(-c3ccc(C)cc3)c2C2CCNCC2)c1 | active: 27.5% | 25.9%
CCN(c1ccc(OC)cc1)S(=O)(=O)N1CCCC(C(=O)NCc2ccc(OC(C)C)cc2)C1 (stereo not drawn) | active: 12.3% | 16.2%
Cc1ccc(-n2ncc(C(=O)Nc3cc(Cl)ccc3C)c2C2CCNCC2)cc1 | active: 43% | 42.3%
COc1ccc(-c2cc(C(F)F)n3ncc(C(=O)Nc4cnn(Cc5ccccc5)c4)c3n2)cc1 | inactive: 0% | 34.7%
COc1ccc(N2CCN(CCNC(=O)Nc3cc(Cl)ccc3Cl)CC2)cc1 | inactive: 3.1% | 26.1%
COc1ccc(NC(=O)C(NC(=O)Cc2cccs2)c2ccccc2)cc1 (stereo not drawn) | inactive: 1.4% | 20.9%
COc1ccccc1CCNC(=O)CCCn1nc(C)c2c(C)n(-c3ccc(C)cc3)nc2c1=O | active: 17.4% | 11.1%
CC(C)CCOc1cccc(C2c3c(oc4ccccc4c3=O)C(=O)N2CCCN2CCOCC2)c1 (stereo not drawn) | active: 13.5% | 22.5%
CCc1ccc(-c2cc(C)no2)cc1S(=O)(=O)N1CCN(c2ccc(OC)cc2)CC1 | active: 22.1% | 18.8%
COc1cccc(CN2CCN(Cc3cc(OC)c(OC)c(OC)c3)CC2)c1OC | inactive: 1% | 12.3%
O=C(c1cnn2c(C(F)F)cc(-c3ccccc3)nc12)N1CCCCC1c1cccnc1 (stereo not drawn) | active: 20.4% | 13.3%
CCOc1nc(-c2ccccc2)ccc1-c1noc(-c2cccnc2)n1 | inactive: 0% | 11.2%
COc1ccc(NC(=S)N(CCCN2CCOCC2)Cc2cn(C)c3ccccc23)cc1OC | active: 6.4% | 16.1%
COc1cccc(-c2nn(-c3ccccc3)c3c2cnc2ccc(F)cc23)c1 | inactive: 0.5% | 29.4%
